# In the supplement of paper PMC4166925:
# ± gives the standard deviation of the averaged measurements. Whole data set: some 33,000 sequences, median “E-score (dimensionless, -0.5 to 0.5)” near -0.049, cut for the highest 2% near 0.37. The list shows a part of the results.
# System: T1, PmTbr T-box DNA-binding domain (GST fusion)
# T1 sequence: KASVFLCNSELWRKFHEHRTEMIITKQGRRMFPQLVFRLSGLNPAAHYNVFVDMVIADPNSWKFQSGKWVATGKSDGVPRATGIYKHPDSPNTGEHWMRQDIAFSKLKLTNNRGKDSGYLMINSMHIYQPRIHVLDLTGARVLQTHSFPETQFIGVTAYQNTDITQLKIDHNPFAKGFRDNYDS
# Experiment: PBM E-score of 8-mer (E-score (dimensionless, -0.5 to 0.5)); Tbr is Tbrain of the sea star Patiria miniata (Pm) or the sea urchin Strongylocentrotus purpuratus (Sp); higher = stronger binding preference; most listed sequences are background and not binding sites
# Conditions: the construct has about 5 more residues each side
# Summary of the method: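 GST-fused Tbr T-box DNA-binding domains (the whole T-box plus about five flanking residues) were expressed in BL21 E. coli at 20 °C and purified by glutathione affinity chromatography. Universal Agilent oligonucleotide arrays were made double-stranded by primer extension, incubated with 200 nM protein in PBS (pH 7.5), then scanned and quantified. Every ungapped 8-mer was scored from probe intensities. The Universal PBM Analysis Suite gave each word an enrichment E-score, averaged over duplicate arrays.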
row,Sequence,PBM E-score of 8-mer
1,ATATGTTC,-0.0191 ± 0.015
2,CCTCTGAA,-0.24 ± 0.019
3,ATAATCAC,0.149 ± 0.047
4,TTACAAAA,-0.272 ± 0.052
5,GGCCCAGA,-0.255 ± 0.075
6,AAGCCGAT,-0.175 ± 0.032
7,CCCCGGGA,0.0135 ± 0.032
8,AGAAGATC,-0.0909 ± 0.029
9,CCTGCGGC,-0.15 ± 0.04
10,AAACCACC,-0.11 ± 0.019
11,ACTACCCA,-0.0473 ± 0.032
12,AGCAACAT,-0.000465 ± 0.079
13,CCGAGCTC,-0.305 ± 0.026
14,CCAGTGCA,-0.177 ± 0.014
15,AGGTCATA,-0.109 ± 0.053
16,ACATAAAT,0.0319 ± 0.031
17,GGACTAAC,-0.132 ± 0.015
18,CAGTCGAG,-0.139 ± 0.078
19,AAAGAATG,-0.116 ± 0.09
20,GACCTGGA,-0.138 ± 0.025
21,AACCTCCT,-0.0405 ± 0.019
22,AGCCTAAC,0.000845 ± 0.017

row,Sequence,PBM E-score of 8-mer
1,GCCCCACC,0.0195 ± 0.016
2,AGTGGCCC,-0.174 ± 0.04
3,CAATCCGA,-0.15 ± 0.004
4,ACCAAAAC,-0.0763 ± 0.047
5,TAACACTA,0.382 ± 0.0057
6,ACCGGGAG,0.113 ± 0.065
7,ATGTCTCC,-0.212 ± 0.08
8,AGGACCGG,-0.31 ± 0.028
9,GGACCGGA,-0.0947 ± 0.0016
10,CGTGAAGA,0.226 ± 0.03
11,CTGGACGC,-0.114 ± 0.031
12,GAATATCA,0.085 ± 0.034
13,CCTTCTTA,0.0146 ± 0.068
14,GGCAGCCA,0.0449 ± 0.017
15,CACAACCG,0.07226 ± 0.00021
16,ATAAGATC,-0.269 ± 0.034
17,CAGATCCC,-0.0979 ± 0.11
18,ATGTGGAC,-0.118 ± 0.066
19,CTACTTGA,0.00296 ± 0.036
20,ATGGACGA,-0.13 ± 0.085
21,GCTCTAGA,-0.268 ± 0.07
22,TCGACCAA,-0.0504 ± 0.03

row,Sequence,PBM E-score of 8-mer
1,GTGGCGTA,0.137 ± 0.033
2,TATTCCAA,-0.171 ± 0.051
3,CTGTTACC,0.142 ± 0.028
4,GCGTAGAC,-0.0222 ± 0.11
5,ATGTTGTG,0.2029 ± 0.0011
6,ACCGGCGC,-0.0164 ± 0.044
7,ACCGCCAA,0.087 ± 0.033
8,CATTCTTA,-0.235 ± 0.007
9,AGGAACTG,-0.0228 ± 0.072
10,CGCCAAAA,0.167 ± 0.052
11,ACTTCGAC,0.14 ± 0.024
12,CATGCTGG,-0.269 ± 0.055
13,CTCTGATC,-0.3354 ± 0.0012
14,ATCCAAGA,-0.193 ± 0.0037
15,GTGGAATA,-0.0631 ± 0.11
16,ACTCCGCG,-0.0699 ± 0.048
17,GACGAGCA,-0.154 ± 0.0018
18,ACGACAGA,-0.056 ± 0.0035
19,TGAGATAA,0.13 ± 0.02
20,AGGGAATA,-0.0759 ± 0.021
21,TATATATA,-0.0971 ± 0.13
22,ATGCATGG,-0.144 ± 0.052

row,Sequence,PBM E-score of 8-mer
1,AGACCTCC,-0.42 ± 0.0099
2,CAAGCATC,-0.0899 ± 0.042
3,ATCTGGTA,-0.25 ± 0.032
4,GTAAGTTA,-0.201 ± 0.061
5,ACGTACGC,0.161 ± 0.033
6,CGTTATTA,-0.117 ± 0.038
7,ACAAGGAC,-0.212 ± 0.0072
8,CTCGTCTC,0.0625 ± 0.065
9,CTCTTCAG,-0.156 ± 0.04
10,GAAGTGGC,0.3 ± 0.026
11,GCCGTTTA,0.0685 ± 0.045
12,CCTACGGA,-0.208 ± 0.097
13,CGTTTGTA,-0.0191 ± 0.039
14,AGGCGCTG,0.202 ± 0.039
15,ATGTTCAC,0.287 ± 0.017
16,CCGACATC,-0.0298 ± 0.027
17,GAGAATCA,-0.0408 ± 0.031
18,TATCCGCA,-0.00417 ± 0.022
19,GATGTCAA,0.044 ± 0.022
20,ATTCCAGA,0.0397 ± 0.077
21,CATGGGGA,-0.242 ± 0.035
22,CATGCTCC,0.0189 ± 0.015

row,Sequence,PBM E-score of 8-mer
1,AGTGCGGG,0.095 ± 0.046
2,CGACCAAG,0.0345 ± 0.035
3,TGGAAAAA,-0.0885 ± 0.0069
4,AGTACTAG,-0.219 ± 0.06
5,AGAACAGA,-0.248 ± 0.027
6,CTTTTGAC,0.116 ± 0.077
7,CGATAAAA,0.195 ± 0.062
8,ACCCTTAC,0.0968 ± 0.058
9,CCTCAGGC,-0.268 ± 0.021
10,AACCTTGC,0.060455 ± 2.1e-05
11,CTTTCAAC,-0.0375 ± 0.03
12,CGGACTCC,-0.179 ± 0.019
13,AGGGTTAG,-0.0834 ± 0.083
14,GTCGTCCA,-0.0348 ± 0.01
15,ACATATGA,0.0313 ± 0.063
16,AAGACCGG,-0.225 ± 0.011
17,CGGTGAAC,-0.0742 ± 0.016
18,CACGTCTG,0.314 ± 0.025
19,CAGCTAGG,0.1627 ± 0.00036
20,ACGTCACA,0.258 ± 0.021
21,CGATATAG,-0.0783 ± 0.038
22,GCGGAACA,-0.013 ± 0.08
